# Assay results published in the supplement of paper PMC3334620.
# Over roughly 33,000 sequences, “E-score (-0.5 to 0.5)” has its median near -0.016; the highest 2% begin near 0.31. The list shows a part of the results.
# Target: Cst6 (UniProt P40535)
# Experiment: PBM E-score (8-mer binding enrichment) (E-score (-0.5 to 0.5)); higher = stronger / more preferred TF binding; most listed sequences are background and not binding sites
# Conditions: protein concentration: 200 nM; construct: GST-DNA-binding domain
# Method in brief: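 Using PURExpress in vitro transcription/translation, GST-tagged yeast transcription factors were made in full-length or DNA-binding-domain form. These were applied at about 100-200 nM to double-stranded universal all-10-mer Agilent arrays, and bound protein was detected with fluorescent anti-GST. Scans were normalised with masliner before the Universal PBM Analysis Suite assigned E-scores to ungapped eight-base words pooled with their reverse complements.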
row,Sequence,PBM E-score
1,AGTAACGG,0.016
2,GGGATCAC,-0.255
3,CGGCCCTC,-0.343
4,CCGATAGC,-0.29
5,AGGAGTAT,-0.0764
6,AGATAGCC,-0.286
7,CGCAGACC,-0.143
8,ATCTTCTG,0.0518
9,CCCGACGC,-0.272
10,CAAAGTGC,0.0144
11,GATCCTAC,-0.0235
12,ACTCCCCT,-0.329
13,CGCCACAA,0.0627
14,CGTGATTC,0.0631
15,ACGGGGGC,-0.3
16,TCGCCACA,0.054
17,CATAGTAA,0.313
18,CCTTTGAA,-0.0211
19,GGGGCCGA,-0.319
20,CTGTGGCA,-0.0921
21,TAGATCCA,-0.0888
22,AAGGTACT,-0.0715
23,ACTATCAC,0.0216
24,AAGTACCC,-0.275
25,CATATATC,0.121

row,Sequence,PBM E-score
1,ATCTGGCG,-0.0694
2,ACTCGTAA,0.204
3,CCTGTTAG,0.0225
4,GAGGCGGA,-0.284
5,CCAACAGC,-0.206
6,TGGTGACA,0.378
7,CCAGACAG,-0.194
8,ATCGCGAT,0.0818
9,ATCTCTGG,-0.167
10,CGCTGGTC,-0.237
11,AGGTGTAA,0.108
12,CGGATTAG,-0.0592
13,GCGGCTGA,-0.0549
14,TCCGCAAA,-0.104
15,AACGTCCA,0.0436
16,AAGATCTA,-0.0728
17,CCCTATAC,-0.113
18,CCCGGTGC,-0.264
19,ATTGGCGG,-0.00796
20,ACCCCAAG,-0.198
21,ATCGGACA,-0.131
22,CGGAAGCA,0.151
23,GACCTTAC,-0.038
24,CGTGAATA,0.267
25,AACTCACG,0.197

row,Sequence,PBM E-score
1,TAGTGAGA,0.101
2,TAGTTCAA,0.0411
3,CCTATACG,-0.156
4,AGTGGTCG,-0.259
5,GGAGTCCC,-0.27
6,ATCTAACA,0.0512
7,ATGGAGCG,-0.0703
8,CGGCGGTA,0.128
9,GGGAAGGA,-0.171
10,GTTATAGA,0.169
11,AAAAAATG,0.266
12,CCAACGGC,-0.171
13,CTCTTCGA,-0.125
14,CCGCGAGG,0.101
15,AGTCTCCC,-0.308
16,AGCGGACG,-0.102
17,CGCTGAAA,-0.0839
18,AGCTATAT,0.161
19,TCAATTCA,0.101
20,GCCTCCTA,-0.292
21,GGGCGAGA,-0.212
22,CCCTTCCC,-0.186
23,TAGCCTAA,-0.143
24,GTAGGGAC,0.0082
25,ACTGGTGC,-0.064

row,Sequence,PBM E-score
1,GAGGCGGC,0.2
2,CATATGAG,0.0643
3,GGCAGGAA,-0.21
4,GTACGGTA,0.0472
5,ACCAAGAC,-0.00643
6,ATCCGAAA,0.0268
7,GAGTAAAA,0.14
8,ACTAAATG,0.0893
9,CAGGAAGC,0.0578
10,GCGTGCAA,-0.209
11,AGTGCCAC,-0.0133
12,AAAACCGG,-0.011
13,AAGCTGGG,-0.266
14,AGATGTCC,-0.116
15,CTAAGACC,-0.119
16,CTCCATAA,0.0411
17,AAGTGCCG,0.125
18,GCTGGACA,-0.268
19,AAAAAACC,0.0474
20,TGGGACCA,-0.146
21,AGAGCCAA,-0.0725
22,GTGCGATA,0.0965
23,ACTATGTA,0.148
24,ATGACTTG,-0.025
25,ACTCCAAT,-0.192

row,Sequence,PBM E-score
1,GCGTGAAA,0.119
2,TCCTCCAA,-0.173
3,CTGAACTC,-0.256
4,GAGTGTGC,-0.102
5,ATGACTGC,0.0273
6,AATACCCG,-0.0669
7,CTGGCAAA,-0.00524
8,ATCTTCGA,0.0607
9,GCCCACGA,-0.336
10,ATGGCCTC,-0.128
11,AACCGAGC,0.0238
12,AGCGAGTC,-0.244
13,AGTGCAAG,0.0144
14,GAGCGCCC,-0.214
15,CACAATTC,0.231
16,TACATAAA,0.255
17,GAGAATGC,-0.00135
18,CCCCAAGC,-0.113
19,CGGCCGAG,-0.0503
20,ACAACGCC,0.153
21,TCAATAGA,0.222
22,CCTAGGGA,-0.0498
23,ACTCGGGA,-0.202
24,CGATCCGC,-0.101
25,AGTATTAC,0.184

row,Sequence,PBM E-score
1,AACGTGGC,-0.0483
2,AAGCCCAA,-0.0495
3,CACAGAGA,0.0716
4,CAATCTAG,0.101
5,CAACCGGA,-0.139
6,CGGTAAAA,0.0944
7,GACCTGCC,-0.265
8,CACTAACG,0.0239
9,CCTTCCTC,-0.282
10,GCGTGACC,0.0522
11,GAATATTC,0.146
12,CACATGTG,0.00714
13,CATCAACA,0.236
14,AGACTGGA,-0.213
15,AATGTCCG,-0.039
16,TGAGCTCA,0.374
17,CCTGGCTA,-0.109
18,CACAAGGC,0.0636
19,CAGGAGTC,-0.0678
20,CCCTCAGG,-0.34
21,ACTGAAAT,0.148
22,ATGATGTC,0.478
23,AGTTACTG,-0.0692
24,AGAAATGG,0.142
25,ATGAGTTG,0.0721

row,Sequence,PBM E-score
1,CGTACGCC,0.111
2,GGGAGCTA,-0.326
3,ATAAGGCA,0.24
4,CTCGTGGA,-0.178
5,GAGCGTGA,-0.053
6,GAATGTCC,-0.0902
7,AAGGATCA,0.0182
8,ATGAAGAC,0.0948
9,AACTTTAA,0.146
10,TAGCTGGA,-0.26
11,GAAAGCCA,-0.086
12,CTGTCACA,0.0581
13,AAAAATTA,0.333
14,ATGCGTGC,0.00984
15,ACGATACC,-0.124
16,CGTGTCTC,0.0239
17,AAGCAGAT,-0.0156
18,CGTACACA,-0.0476
19,TGCGATAA,0.104
20,ATGTCACC,0.465
21,TGCAAACA,-0.0811
22,ACTAGGCG,0.23
